From PMC2811152
These are yes or no findings as the source states them, for the method shown. For some assays here: Binding seen in cells or lysates may run through a third protein. Some results given as binding are weak or reduced against the parent protein; the word gives no strength. For some assays here: Sequences can lack the tags named with a protein. Blank lines part the entries; values can stand above or below the molecule they belong to.

By UniProt entry, the sequences of proteins in these tests, tags left out. Where a name states a change or a piece, a line headed by the entry shows the natural chain unless it says otherwise.
UniProt P35222: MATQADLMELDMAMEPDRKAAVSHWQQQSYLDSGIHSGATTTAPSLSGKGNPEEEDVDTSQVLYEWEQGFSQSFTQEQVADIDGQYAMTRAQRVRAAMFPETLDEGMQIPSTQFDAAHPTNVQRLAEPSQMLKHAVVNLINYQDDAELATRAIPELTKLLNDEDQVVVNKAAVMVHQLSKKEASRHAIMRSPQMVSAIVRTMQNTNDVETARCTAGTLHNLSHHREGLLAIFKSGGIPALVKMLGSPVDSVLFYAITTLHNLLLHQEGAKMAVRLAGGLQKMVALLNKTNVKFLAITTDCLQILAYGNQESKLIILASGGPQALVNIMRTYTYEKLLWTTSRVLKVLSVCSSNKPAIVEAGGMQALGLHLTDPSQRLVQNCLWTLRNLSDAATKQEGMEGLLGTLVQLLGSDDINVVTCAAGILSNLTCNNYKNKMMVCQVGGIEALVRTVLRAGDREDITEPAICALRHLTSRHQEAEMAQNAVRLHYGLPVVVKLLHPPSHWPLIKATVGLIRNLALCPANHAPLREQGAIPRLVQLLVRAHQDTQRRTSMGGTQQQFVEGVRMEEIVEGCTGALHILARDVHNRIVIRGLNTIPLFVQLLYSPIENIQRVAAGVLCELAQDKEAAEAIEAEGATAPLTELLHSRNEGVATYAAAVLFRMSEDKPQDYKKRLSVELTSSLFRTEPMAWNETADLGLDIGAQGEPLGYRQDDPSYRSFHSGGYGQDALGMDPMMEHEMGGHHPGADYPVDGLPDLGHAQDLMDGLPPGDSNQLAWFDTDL
UniProt P36402: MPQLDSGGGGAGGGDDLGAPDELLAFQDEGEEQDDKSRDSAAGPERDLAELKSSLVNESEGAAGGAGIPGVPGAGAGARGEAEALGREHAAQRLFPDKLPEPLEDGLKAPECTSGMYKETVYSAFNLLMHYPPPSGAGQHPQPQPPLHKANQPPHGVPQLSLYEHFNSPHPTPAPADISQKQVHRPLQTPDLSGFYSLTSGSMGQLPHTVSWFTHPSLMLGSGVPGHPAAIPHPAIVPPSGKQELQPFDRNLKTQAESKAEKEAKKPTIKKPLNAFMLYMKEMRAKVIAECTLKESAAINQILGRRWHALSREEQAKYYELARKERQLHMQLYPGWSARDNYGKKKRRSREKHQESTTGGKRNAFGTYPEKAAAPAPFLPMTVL
UniProt Q9NQB0: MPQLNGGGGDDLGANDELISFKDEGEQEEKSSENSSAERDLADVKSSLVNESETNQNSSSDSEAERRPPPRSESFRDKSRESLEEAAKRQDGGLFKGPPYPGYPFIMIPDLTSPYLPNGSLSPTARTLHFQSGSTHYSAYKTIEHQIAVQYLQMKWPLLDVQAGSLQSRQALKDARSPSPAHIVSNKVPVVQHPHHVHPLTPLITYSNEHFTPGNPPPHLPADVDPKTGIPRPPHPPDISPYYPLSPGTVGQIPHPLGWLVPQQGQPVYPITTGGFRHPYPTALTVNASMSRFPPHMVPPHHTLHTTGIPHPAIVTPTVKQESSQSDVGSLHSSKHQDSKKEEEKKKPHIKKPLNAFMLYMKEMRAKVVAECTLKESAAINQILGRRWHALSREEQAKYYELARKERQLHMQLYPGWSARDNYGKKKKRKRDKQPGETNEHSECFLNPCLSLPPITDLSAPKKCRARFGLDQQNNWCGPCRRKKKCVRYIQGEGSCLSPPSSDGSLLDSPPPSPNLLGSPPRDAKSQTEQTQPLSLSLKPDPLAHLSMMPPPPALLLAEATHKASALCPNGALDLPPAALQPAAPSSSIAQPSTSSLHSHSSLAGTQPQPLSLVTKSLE

Key:
[1] = biological target: T1, special AT-rich binding protein 1 (SATB1), endogenous (human (endogenous in Jurkat, human thymocytes, HEK 293T)) (UniProt Q01826); assay: co-IP; HEK 293T cells overexpressing VP-16 fused regions of β-catenin; IP anti-SATB1, WB anti-β-catenin
T1 sequence: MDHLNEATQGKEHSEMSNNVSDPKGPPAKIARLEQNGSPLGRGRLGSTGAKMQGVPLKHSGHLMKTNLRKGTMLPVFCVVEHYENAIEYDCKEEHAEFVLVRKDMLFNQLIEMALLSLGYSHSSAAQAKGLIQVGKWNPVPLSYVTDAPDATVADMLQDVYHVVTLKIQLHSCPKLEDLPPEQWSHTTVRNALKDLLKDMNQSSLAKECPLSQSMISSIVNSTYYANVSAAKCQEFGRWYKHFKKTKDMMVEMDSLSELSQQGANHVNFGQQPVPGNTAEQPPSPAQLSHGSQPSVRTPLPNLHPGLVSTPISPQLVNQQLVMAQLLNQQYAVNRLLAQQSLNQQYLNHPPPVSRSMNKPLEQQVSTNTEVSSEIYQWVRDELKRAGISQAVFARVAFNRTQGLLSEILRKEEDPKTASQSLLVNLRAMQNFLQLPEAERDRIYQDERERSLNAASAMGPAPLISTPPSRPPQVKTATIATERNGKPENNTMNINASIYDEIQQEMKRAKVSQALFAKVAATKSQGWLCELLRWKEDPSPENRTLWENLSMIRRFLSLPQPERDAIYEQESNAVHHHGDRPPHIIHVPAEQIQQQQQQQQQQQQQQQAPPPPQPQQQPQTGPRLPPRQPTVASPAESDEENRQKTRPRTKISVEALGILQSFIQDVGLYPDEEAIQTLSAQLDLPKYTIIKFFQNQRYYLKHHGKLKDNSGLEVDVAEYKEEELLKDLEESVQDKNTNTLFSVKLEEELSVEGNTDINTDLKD

[2] = biological target: T1, special AT-rich binding protein 1 (SATB1), endogenous (human (endogenous in Jurkat, human thymocytes, HEK 293T)); assay: co-IP; LiCl treated extracts of HEK 293T cells transfected with Flag-TCF4 or empty Flag vector; IP anti-SATB1, WB anti-β-catenin
[3] = biological target: T1, special AT-rich binding protein 1 (SATB1), endogenous (human (endogenous in Jurkat, human thymocytes, HEK 293T)); assay: co-IP; Jurkat nuclear extract; IP with anti-β-catenin or anti-SATB1, WB with anti-SATB1 or anti-β-catenin; 1× PBS, 0.1% Triton X-100, 4°C
[4] = biological target: T2, Flag:PDZ (1–204 aa) of SATB1 (UniProt Q01826); assay: co-IP; extracts of HEK 293T cells overexpressing 3XFlag-SATB1 and its domains; IP anti-Flag, WB anti-β-catenin
T2 sequence: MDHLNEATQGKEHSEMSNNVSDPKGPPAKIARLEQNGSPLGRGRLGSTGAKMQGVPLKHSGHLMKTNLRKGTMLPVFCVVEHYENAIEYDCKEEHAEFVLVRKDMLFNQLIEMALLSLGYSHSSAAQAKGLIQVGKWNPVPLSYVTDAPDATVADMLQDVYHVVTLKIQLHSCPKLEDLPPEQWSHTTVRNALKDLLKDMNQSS

[5] = biological target: T3, Flag:CD+HD (330–763 aa) of SATB1 (UniProt Q01826); assay: as above
T3 sequence: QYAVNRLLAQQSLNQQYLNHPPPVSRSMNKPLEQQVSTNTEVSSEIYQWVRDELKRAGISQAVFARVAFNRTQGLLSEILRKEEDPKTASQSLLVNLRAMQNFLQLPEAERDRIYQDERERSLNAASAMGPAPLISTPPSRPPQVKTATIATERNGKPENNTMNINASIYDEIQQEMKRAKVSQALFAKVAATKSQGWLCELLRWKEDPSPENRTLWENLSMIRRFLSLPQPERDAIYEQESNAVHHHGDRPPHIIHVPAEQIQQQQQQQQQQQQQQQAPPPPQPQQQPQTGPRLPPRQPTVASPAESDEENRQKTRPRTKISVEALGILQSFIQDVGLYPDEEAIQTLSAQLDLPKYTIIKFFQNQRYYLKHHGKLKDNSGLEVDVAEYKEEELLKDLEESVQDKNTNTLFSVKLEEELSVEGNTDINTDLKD

[6] = biological target: T1, special AT-rich binding protein 1 (SATB1), endogenous (human (endogenous in Jurkat, human thymocytes, HEK 293T)); assay: co-IP; extracts of LiCl-treated HEK 293T cells overexpressing RFP-fused β-catenin 1–576 or 577–780 or none; IP anti-SATB1, WB anti-β-catenin
6XHis-SATB1 = biological target: T4, 6XHis-SATB1 (UniProt Q01826); assay: pull-down; 100 µg SW480 nuclear extract passed on immobilised SATB1 (6XHis-SATB1 on Ni-NTA beads) and its GST-fused domains; WB anti-β-catenin; only the target purified
T4 sequence: T1 sequence

GST-β-catenin [7] = biological target: GST-β-catenin (UniProt P35222); assay: pull-down; in vitro competition: recombinant SATB1 domain incubated with GST-β-catenin on glutathione-Sepharose preloaded with TCF-4; read-out is loss of bound TCF-4; both purified
GST-β-catenin [8] = biological target: GST-β-catenin (UniProt P35222); assay: pull-down; 35S-labeled in vitro translated SATB1 incubated 2–3 h with GST-β-catenin or GST on glutathione Sepharose beads; washed with 1× PBS, 0.1% triton X-100; eluted in SDS loading buffer; only the target purified
[9] = biological target: β-catenin, endogenous (human (endogenous in Jurkat, human thymocytes, HEK 293T, SW480)) (UniProt P35222); assay: co-IP; Jurkat nuclear extract; IP with anti-β-catenin or anti-SATB1, WB with anti-SATB1 or anti-β-catenin; 1× PBS, 0.1% Triton X-100, 4°C
[10] = biological target: TCF-1, endogenous (human (endogenous in human thymocytes)) (UniProt P36402); assay: co-IP; nuclear extracts of human thymocytes treated with LiCl for 24 h; IP anti-TCF-1, immunoblot anti-SATB1
[11] = biological target: TCF-4, endogenous (human (endogenous in HEK 293T)) (UniProt Q9NQB0); assay: co-IP; nuclear extracts of HEK 293T cells cultured with or without LiCl for 24 h; IP anti-TCF-4, immunoblot anti-SATB1
[12] = biological target: β-catenin, endogenous (human (endogenous in Jurkat, human thymocytes, HEK 293T, SW480)) (UniProt P35222); assay: co-IP; nuclear extracts of BIO treated and control human thymocytes; IP anti-β-catenin, WB anti-SATB1
GST-β-catenin [13] = biological target: GST-β-catenin (UniProt P35222); assay: pull-down; 100 µg Jurkat nuclear extract passed on immobilised GST-β-catenin and its domains on glutathione Sepharose; WB anti-SATB1; only the target purified

Molecule: VP-16 fused N-terminal region (aa 1–137) of β-catenin (from UniProt P35222 1-137) (domain or fragment)
binding [1]: no binding

Molecule: β-catenin, endogenous (from UniProt P35222 1-781)
binding [2]: binds
binding [3]: binds
binding [4]: binds
binding [5]: no binding
binding [6]: binds
binding (6XHis-SATB1): binds

Molecule: RFP-fused C-terminus (577–780) of β-catenin (from UniProt P35222 577-780) (domain or fragment)
binding [6]: binds

B1: recombinant PDZ domain of SATB1 (domain or fragment, UniProt Q01826 1-204)
chain: T2 sequence
binding (GST-β-catenin [7]): binds

B3: special AT-rich binding protein 1 (SATB1), endogenous (protein, UniProt Q01826 1-763)
chain: T1 sequence
binding [9]: binds
binding [10]: no binding
binding [11]: no binding
binding [12]: binds
binding (GST-β-catenin [13]): binds

Further lines, results first:

binding [1]: binds
Molecule: VP-16 fused C-terminal region (aa 666–780) of β-catenin (from UniProt P35222 666-780) (domain or fragment)

binding [6]: no binding
Molecule: RFP-fused ΔC-term (1–576) of β-catenin (from UniProt P35222 1-576) (domain or fragment)

binding (GST-β-catenin [8]): binds
B2: 35S-labeled SATB1 (protein, UniProt Q01826 1-763)
chain: T1 sequence
modifications: 35S-labeled
